At least one peptide structure holds a part that was inferred or is arguable (an end, a ring closure or a residue). Numbered stars: 1 amine (or outer) side, 2 acyl side, 3 side chain; on linkers, the order of the positions; unused ones are H or OH. Bridge positions count the residues as written; N and C are the ends. Square brackets hold non-standard residues; d marks the D form. Peptide text beside a SMILES is read from it. I, II: the chains in the order shown. X1 = O=C(C=NOCCCCCCOc1cc(C[*:2])cc(C[*:3])c1)[*:1]; X5 = O=C(CCCCCCOc1cc(C[*:2])cc(C[*:3])c1)[*:1]; Diglycolyl = O=C(COCC(=O)[*:2])[*:1]; tBuAla = CC(C)(C)C[C@H](N)C(=O)O; Cba = N[C@@H](CC1CCC1)C(=O)O; hSer = N[C@@H](CCO)C(=O)O; Nle = CCCC[C@H](N)C(=O)O
Target: T1, rh-integrin α4β7/LPAM-1 (Homo sapiens, UniProt P13612+P26010)
T1 sequence (P13612 34-977 limits assumed): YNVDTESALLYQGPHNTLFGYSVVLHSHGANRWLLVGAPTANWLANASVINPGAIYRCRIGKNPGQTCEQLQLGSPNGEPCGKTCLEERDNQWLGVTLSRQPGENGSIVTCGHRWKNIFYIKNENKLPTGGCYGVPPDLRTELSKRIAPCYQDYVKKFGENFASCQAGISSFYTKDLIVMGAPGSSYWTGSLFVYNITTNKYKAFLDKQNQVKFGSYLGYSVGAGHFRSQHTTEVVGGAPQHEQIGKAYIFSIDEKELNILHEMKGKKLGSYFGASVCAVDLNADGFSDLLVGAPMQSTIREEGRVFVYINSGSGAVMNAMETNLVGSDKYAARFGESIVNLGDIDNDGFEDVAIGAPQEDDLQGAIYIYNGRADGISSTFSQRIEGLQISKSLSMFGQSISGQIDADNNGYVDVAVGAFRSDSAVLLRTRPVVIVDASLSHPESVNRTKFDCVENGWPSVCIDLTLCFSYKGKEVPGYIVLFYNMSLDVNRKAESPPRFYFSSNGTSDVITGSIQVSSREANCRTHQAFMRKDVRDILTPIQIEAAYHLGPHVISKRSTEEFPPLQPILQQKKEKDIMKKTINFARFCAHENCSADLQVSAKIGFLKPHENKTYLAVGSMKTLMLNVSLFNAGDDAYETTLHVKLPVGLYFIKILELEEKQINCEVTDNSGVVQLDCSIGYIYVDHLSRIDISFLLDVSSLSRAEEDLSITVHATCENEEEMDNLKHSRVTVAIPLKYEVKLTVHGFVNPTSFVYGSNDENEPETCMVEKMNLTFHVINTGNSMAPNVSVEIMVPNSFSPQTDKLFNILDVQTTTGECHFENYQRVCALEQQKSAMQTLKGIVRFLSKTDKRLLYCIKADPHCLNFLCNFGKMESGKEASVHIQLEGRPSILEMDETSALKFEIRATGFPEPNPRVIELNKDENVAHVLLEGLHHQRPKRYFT
T1 sequence (P26010 20-723 limits assumed): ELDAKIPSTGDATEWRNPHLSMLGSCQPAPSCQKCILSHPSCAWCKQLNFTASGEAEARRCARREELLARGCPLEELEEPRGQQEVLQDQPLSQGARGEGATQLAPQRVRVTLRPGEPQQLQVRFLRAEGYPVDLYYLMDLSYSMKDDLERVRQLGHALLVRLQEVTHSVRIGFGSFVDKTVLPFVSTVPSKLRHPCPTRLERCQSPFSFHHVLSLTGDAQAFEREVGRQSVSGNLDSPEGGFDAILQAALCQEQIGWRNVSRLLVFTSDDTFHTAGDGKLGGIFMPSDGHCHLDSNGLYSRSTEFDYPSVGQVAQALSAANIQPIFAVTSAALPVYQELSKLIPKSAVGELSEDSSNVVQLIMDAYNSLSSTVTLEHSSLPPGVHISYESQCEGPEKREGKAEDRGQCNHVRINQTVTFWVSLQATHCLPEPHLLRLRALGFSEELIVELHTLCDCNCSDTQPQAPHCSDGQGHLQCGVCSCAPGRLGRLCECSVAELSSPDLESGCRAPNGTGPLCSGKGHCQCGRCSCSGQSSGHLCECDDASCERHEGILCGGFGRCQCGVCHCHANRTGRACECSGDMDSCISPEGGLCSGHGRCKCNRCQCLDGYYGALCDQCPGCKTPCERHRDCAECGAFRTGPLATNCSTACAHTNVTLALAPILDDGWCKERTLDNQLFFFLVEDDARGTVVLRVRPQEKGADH
Test: α4β7-MadCAM Competition ELISA (Example 4)
Assay type: binding
Conditions: 4 μg/mL α4β7 coated, MAdCAM and peptide mixture, 28° C.
Description: After washing with wash buffer, 200 μL assay buffer was added to each well and incubated for one hour at 28° C. After another wash with wash buffer, 100 μL of a MAdCAM and peptide mixture in assay buffer was added to each well and incubated for one hour at 28° C., followed by washing with wash buffer.

Compound	IC50
CC[C@H](C)[C@@H]1NC(=O)[C@H](CC(=O)O)NC(=O)[C@H](CCOC)NC(=O)[C@@H]2CCCN2C(=O)[C@@H]2CSCc3cc(cc(c3)OCCCCCCON=CC(=O)N[C@@H](CCCNC(=N)N)C(=O)N2)CSC[C@@H](C(=O)O)NC(=O)[C@H](CCC(=O)O)NC(=O)[C@H](Cc2ccc(O)cc2)NC(=O)[C@H](Cc2c[nH]c3ccccc23)NC1=O [SEQ ID NO: 110] (RCP[hSer](Me)DIWYEC-OH; linker N-2-10 via X1; C-terminus assumed)	1710 nM
CCCC[C@@H]1NC(=O)[C@@H]2CCCN2C(=O)[C@@H]2CSCc3cc(cc(c3)OCCCCCCC(=O)NCC(=O)N[C@@H](CCCCN)C(=O)N2)CSC[C@@H](C(=O)O)NC(=O)[C@H](CCC(=O)O)NC(=O)[C@H](CCC(N)=O)NC(=O)[C@H](Cc2c[nH]c3ccccc23)NC(=O)[C@H](CC2CCC2)NC(=O)[C@H](CC(=O)O)NC1=O [SEQ ID NO: 112] (GKCP[Nle]D[Cba]WQEC-OH; linker N-3-11 via X5; C-terminus assumed)	1610 nM
CC(C)C[C@@H]1NC(=O)[C@@H]2CCCN2C(=O)[C@@H]2CSCc3cc(cc(c3)OCCCCCCON=CC(=O)N[C@@H](C)C(=O)N2)CSC[C@@H](C(=O)O)NC(=O)[C@H](CCC(=O)O)NC(=O)[C@H](Cc2ccc(O)cc2)NC(=O)[C@@H]2CCCN2C(=O)[C@H]([C@@H](C)O)NC(=O)[C@H](CC(=O)O)NC1=O [SEQ ID NO: 113] (ACPLDTPYEC-OH; linker N-2-10 via X1; C-terminus assumed)	1450 nM
CC(C)C[C@@H]1NC(=O)[C@@H]2CCCN2C(=O)[C@@H]2CSCc3cc(cc(c3)OCCCCCCON=CC(=O)N[C@@H](CCCCN)C(=O)N2)CSC[C@@H](C(=O)O)NC(=O)[C@H](CCC(=O)O)NC(=O)[C@H](Cc2ccc(O)cc2)NC(=O)[C@@H]2CCCN2C(=O)[C@H](C)NC(=O)[C@H](CC(=O)O)NC1=O [SEQ ID NO: 114] (KCPLDAPYEC-OH; linker N-2-10 via X1; C-terminus assumed)	1400 nM
CC(C)C[C@@H]1NC(=O)[C@@H]2CCCN2C(=O)[C@@H](NC(=O)[C@H](CCCCN)NC(=O)[C@@H](N)CO)CSSC[C@@H](C(=O)O)NC(=O)[C@H](CO)NC(=O)[C@@H]2CCCN2C(=O)[C@H](C(C)C)NC(=O)[C@H](CC(=O)O)NC1=O [SEQ ID NO: 115] (H-SKCPLDVPSC-OH; disulfide 3-10; N-terminus and C-terminus assumed)	1300 nM
CCCC[C@@H]1NC(=O)[C@@H]2CCCN2C(=O)[C@@H]2CSCc3cc(cc(c3)OCCCCCCON=CC(=O)N[C@@H](CCCNC(=N)N)C(=O)N2)CSC[C@@H](C(=O)O)NC(=O)[C@H](CCC(=O)O)NC(=O)[C@H](Cc2ccc(O)cc2)NC(=O)[C@@H]2CCCN2C(=O)[C@H](CC(C)(C)C)NC(=O)[C@H](CC(=O)O)NC1=O [SEQ ID NO: 117] (RCP[Nle]D[tBuAla]PYEC-OH; linker N-2-10 via X1; C-terminus assumed)	1130 nM
CC(C)C[C@@H]1NC(=O)[C@@H]2CCCN2C(=O)[C@@H]2CSCc3cc(cc(c3)OCCCCCCON=CC(=O)N[C@@H](CCCCN)C(=O)N2)CSC[C@@H](C(=O)O)NC(=O)[C@H](CCC(=O)O)NC(=O)[C@H](Cc2ccc(O)cc2)NC(=O)[C@H](C)NC(=O)[C@H]([C@@H](C)O)NC(=O)[C@H](CC(=O)O)NC1=O [SEQ ID NO: 118] (KCPLDTAYEC-OH; linker N-2-10 via X1; C-terminus assumed)	1040 nM
CC[C@H](C)[C@@H]1NC(=O)[C@H](CC(=O)O)NC(=O)[C@H](CCSC)NC(=O)[C@@H]2CCCN2C(=O)[C@@H](NC(=O)[C@H](CCCNC(=N)N)NC(=O)[C@H](CO)NC(C)=O)CSSC[C@@H](C(=O)O)NC(=O)[C@H](CCC(=O)O)NC(=O)CNC(=O)[C@H](C)NC1=O [SEQ ID NO: 119] (Ac-SRCPMDIAGEC-OH; disulfide 3-11; C-terminus assumed)	932 nM
CC(C)C[C@@H]1NC(=O)[C@@H]2CCCN2C(=O)[C@@H]2CSCc3cc(cc(c3)OCCCCCCON=CC(=O)N[C@@H](CCCCN)C(=O)N2)CSC[C@@H](C(=O)O)NC(=O)[C@H](CCC(=O)O)NC(=O)[C@H](C)NC(=O)[C@@H]2CCCN2C(=O)[C@H]([C@@H](C)O)NC(=O)[C@H](CC(=O)O)NC1=O [SEQ ID NO: 120] (KCPLDTPAEC-OH; linker N-2-10 via X1; C-terminus assumed)	796 nM
CC[C@H](C)[C@@H]1NC(=O)[C@H](CC(=O)O)NC(=O)[C@H](CCSC)NC(=O)[C@@H]2CCCN2C(=O)[C@@H](NC(=O)[C@H](CCCNC(=N)N)NC(=O)[C@H](CO)NC(C)=O)CSSC[C@@H](C(=O)N[C@@H](CCCCNC(=O)COCC(=O)NCCCC[C@H](NC(=O)[C@@H]2CSSC[C@H](NC(=O)[C@H](CCCNC(=N)N)NC(=O)[C@H](CO)NC(C)=O)C(=O)N3CCC[C@H]3C(=O)N[C@@H](CCSC)C(=O)N[C@@H](CC(=O)O)C(=O)N[C@@H]([C@@H](C)CC)C(=O)N[C@@H](C)C(=O)NCC(=O)N[C@@H](CCC(=O)O)C(=O)N2)C(=O)O)C(=O)O)NC(=O)[C@H](CCC(=O)O)NC(=O)CNC(=O)[C@H](C)NC1=O [SEQ ID NO: 123] (I: Ac-SRCPMDIAGECK-OH / II: Ac-SRCPMDIAGECK-OH; disulfide I:3-I:11, II:3-II:11; linker I:12-II:12 via Diglycolyl; C-terminus assumed)	729 nM
CC(C)[C@@H]1NC(=O)[C@H](CC(=O)O)NC(=O)[C@H](CC(C)(C)C)NC(=O)[C@@H]2CCCN2C(=O)[C@@H]2CSCc3cc(cc(c3)OCCCCCCON=CC(=O)N[C@@H](CCCNC(=N)N)C(=O)N2)CSC[C@@H](C(=O)O)NC(=O)[C@H](CCC(=O)O)NC(=O)[C@H](CCC(N)=O)NC(=O)[C@@H]2CCCN2C1=O [SEQ ID NO: 124] (RCP[tBuAla]DVPQEC-OH; linker N-2-10 via X1; C-terminus assumed)	690 nM
CSCC[C@@H]1NC(=O)[C@H](CC(=O)O)NC(=O)[C@H](CC(C)C)NC(=O)[C@@H]2CCCN2C(=O)[C@@H]2CSCc3cc(cc(c3)OCCCCCCON=CC(=O)N[C@@H](CCCCN)C(=O)N2)CSC[C@@H](C(=O)O)NC(=O)[C@H](CCC(=O)O)NC(=O)[C@H](Cc2ccc(O)cc2)NC(=O)[C@@H]2CCCN2C1=O [SEQ ID NO: 125] (KCPLDMPYEC-OH; linker N-2-10 via X1; C-terminus assumed)	672 nM
CSCC[C@@H]1NC(=O)[C@@H]2CCCN2C(=O)[C@@H]2CSCc3cc(cc(c3)OCCCCCCON=CC(=O)N[C@@H](CCC(N)=O)C(=O)N2)CSC[C@@H](C(=O)O)NC(=O)[C@H]([C@@H](C)O)NC(=O)[C@@H]2CCCN2C(=O)[C@H](C(C)C)NC(=O)[C@H](CC(=O)O)NC1=O [SEQ ID NO: 126] (QCPMDVPTC-OH; linker N-2-9 via X1; C-terminus assumed)	672 nM
CCCC[C@@H]1NC(=O)[C@@H]2CCCN2C(=O)[C@@H]2CSCc3cc(cc(c3)OCCCCCCON=CC(=O)N[C@@H](CCCNC(=N)N)C(=O)N2)CSC[C@@H](C(=O)O)NC(=O)[C@H](CCCCN)NC(=O)[C@H](C(C)C)NC(=O)[C@H](Cc2c[nH]c3ccccc23)NC(=O)[C@H]([C@@H](C)CC)NC(=O)[C@H](CC(=O)O)NC1=O [SEQ ID NO: 127] (RCP[Nle]DIWVKC-OH; linker N-2-10 via X1; C-terminus assumed)	620 nM
CC(C)C[C@@H]1NC(=O)[C@@H]2CCCN2C(=O)[C@@H]2CSCc3cc(cc(c3)OCCCCCCON=CC(=O)N[C@@H](CCCCN)C(=O)N2)CSC[C@@H](C(=O)O)NC(=O)[C@H](CCC(=O)O)NC(=O)[C@H](CCC(N)=O)NC(=O)[C@@H]2CCCN2C(=O)[C@H]([C@@H](C)O)NC(=O)[C@H](CC(=O)O)NC1=O [SEQ ID NO: 128] (KCPLDTPQEC-OH; linker N-2-10 via X1; C-terminus assumed)	602 nM
